Values joined by “and” are separate entries in the source; they are usually repeats but may differ in a detail not shown here. Equal entries are not always repeated. Structures can show the parent of a compound that is named as a salt. The whole screen tested about 5,800 compounds, of which about 620 (11%) showed activity.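 Rule for the calls: active = score above a cut-off or among the top three wells of a plate; in these data no inactive exceeds 0.85.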 The list shows a part of the results, in another mix than the full data.
Tested on: primary human hepatic stellate cells (donor 1)
Assay: scaled lipid accumulation score (0 = DMSO-like, 1 = nortriptyline-like); higher = stronger HSC inactivation (lipid re-accumulation), active = hit call of the paper
Conditions: 48 h
[1] = library stock concentration: 3.33 mM
[2] = library stock concentration: 10 mM
[3] = library stock concentration: 80 uM
[4] = library stock concentration: 400 uM
[5] = library stock concentration: 2 mM

## CCC(=O)O[C@]1(C(=O)CCl)[C@@H](C)C[C@H]2[C@@H]3CCC4=CC(=O)C=C[C@]4(C)[C@@]3(F)[C@@H](O)C[C@@]21C [Clobetasol propionate]
  scaled lipid accumulation score: inactive: 0.041
[1]
  scaled lipid accumulation score: inactive: ≤ 0
[2]
  scaled lipid accumulation score: inactive: ≤ 0 and inactive: 0.129

## O=C1C[C@@H](c2ccc(O)cc2)Oc2cc(O)cc(O)c21 [Naringenine]
  scaled lipid accumulation score: inactive: ≤ 0

## O=C1C[C@@H](c2ccc(O)cc2)Oc2cc(O)cc(O)c21 [Naringenin]
[1]
  scaled lipid accumulation score: inactive: ≤ 0
[2]
  scaled lipid accumulation score: inactive: ≤ 0

## NC(=O)c1ccc([N+](=O)[O-])cc1Cl [Aklomide]
[2]
  scaled lipid accumulation score: inactive: 0.07

## O=C1OCCN1/N=C/c1ccc([N+](=O)[O-])o1 [Furazolidone]
  scaled lipid accumulation score: inactive: ≤ 0
Library stock concentration: 8.9 mM
  scaled lipid accumulation score: inactive: ≤ -0.001
[2]
  scaled lipid accumulation score: inactive: ≤ 0

## CCOC(=O)[C@H](CCc1ccccc1)N[C@H]1CS[C@H](c2cccs2)CN(CC(=O)O)C1=O [Temocapril HCl]
[1]
  scaled lipid accumulation score: inactive: ≤ 0
[2]
  scaled lipid accumulation score: inactive: 0.025

## O=C1NC(=O)/C(=C/c2ccc3nccnc3c2)S1
[3]
  scaled lipid accumulation score: inactive: ≤ -0.016
[4]
  scaled lipid accumulation score: inactive: ≤ -0.016
[5]
  scaled lipid accumulation score: inactive: ≤ -0.016
[2]
  scaled lipid accumulation score: inactive: ≤ -0.016

## CCCCC(F)(F)[C@@]1(O)CC[C@H]2[C@@H](CC(=O)[C@@H]2CCCCCCC(=O)O)O1 [Lubiprostone]
[1]
  scaled lipid accumulation score: inactive: ≤ 0
[2]
  scaled lipid accumulation score: inactive: ≤ 0

## Oc1ccc([C@@H]2CNCc3sccc32)cc1O
[2]
  scaled lipid accumulation score: inactive: ≤ 0

## Nc1c(S(=O)(=O)O)cc(Nc2cccc3ccccc23)c2c1C(=O)c1ccccc1C2=O
[2]
  scaled lipid accumulation score: inactive: 0.071

## Cc1c[nH]c(-c2cnc(NCCNc3ccc(C#N)cn3)nc2-c2ccc(Cl)cc2Cl)n1.Cl
[2]
  scaled lipid accumulation score: active: 1.08

## OC[C@H]1O[C@@H](Oc2cc(O)cc(/C=C/c3ccc(O)cc3)c2)[C@H](O)[C@@H](O)[C@@H]1O
[2]
  scaled lipid accumulation score: inactive: ≤ 0

## Br.NC(=O)C(c1ccccc1)(c1ccccc1)[C@@H]1CCN(CCc2ccc3c(c2)CCO3)C1
[2]
  scaled lipid accumulation score: active: 0.88

## COc1ccc(C2CNC(=O)C2)cc1OC1CCCC1 (stereo not drawn) [S- (+)-Rolipram]
[1]
  scaled lipid accumulation score: inactive: ≤ 0
[2]
  scaled lipid accumulation score: inactive: ≤ 0

## COc1ccc(C2CNC(=O)C2)cc1OC1CCCC1 (stereo unspecified) [Rolipram]
  scaled lipid accumulation score: inactive: ≤ 0
[1]
  scaled lipid accumulation score: inactive: ≤ 0
Library stock concentration: 7.3 mM
  scaled lipid accumulation score: inactive: 0.021
[2]
  scaled lipid accumulation score: inactive: ≤ 0
Library stock concentration: 18.2 mM
  scaled lipid accumulation score: inactive: ≤ -0.021

## COc1ccc(C2CNC(=O)C2)cc1OC1CCCC1 (stereo unspecified)
[2]
  scaled lipid accumulation score: inactive: ≤ 0

## O=c1c(O)c(-c2ccc(O)cc2O)oc2cc(O)cc(O)c12 [Morin]
[2]
  scaled lipid accumulation score: inactive: 0.085 and inactive: ≤ 0

## O=c1c(O)c(-c2ccc(O)cc2O)oc2cc(O)cc(O)c12 [Morin Hydrate]
[1]
  scaled lipid accumulation score: inactive: ≤ 0
[2]
  scaled lipid accumulation score: inactive: ≤ 0

## CN(Cc1ccccc1)C(=O)[C@H](Cc1ccc2ccccc2c1)NC(=O)[C@@H]1CCCN1C(=O)Nc1ccccc1[N+](=O)[O-]
[2]
  scaled lipid accumulation score: inactive: 0.005

## CC(=O)Nc1nc(C)c(-c2ccc(Cl)c(S(=O)(=O)NCCO)c2)s1
[3]
  scaled lipid accumulation score: inactive: ≤ -0.016
[4]
  scaled lipid accumulation score: inactive: ≤ -0.016
[5]
  scaled lipid accumulation score: inactive: ≤ -0.016
[1]
  scaled lipid accumulation score: inactive: ≤ 0
[2]
  scaled lipid accumulation score: inactive: ≤ 0 and inactive: ≤ -0.016

## c1ccc2c3c([nH]c2c1)C1C2CCC(C4CCCNC42)N1CC3 (stereo unspecified) [Nitrarine dihydrochloride]
  scaled lipid accumulation score: inactive: ≤ 0

## COc1ccccc1OCCNCC(O)COc1cccc2[nH]c3ccccc3c12 (stereo unspecified) [Carvedilol]
[2]
  scaled lipid accumulation score: active: 1.18

## CC(C)c1cccc(C(C)C)c1N1C(=O)c2ccc(O)cc2C1=O
[2]
  scaled lipid accumulation score: inactive: 0.259

## COc1ccc(C(=O)NCc2cccnc2)cc1C(=O)NCc1cccnc1 [Picotamide monohydrate]
  scaled lipid accumulation score: inactive: 0.043

## COc1ccc(C(=O)NCc2cccnc2)cc1C(=O)NCc1cccnc1 [Picotamide]
Library stock concentration: 5.3 mM
  scaled lipid accumulation score: inactive: 0.017
[2]
  scaled lipid accumulation score: inactive: ≤ 0

## Cc1cc([N+](=O)[O-])ccc1NS(=O)(=O)c1cc(Cl)ccc1Cl
[1]
  scaled lipid accumulation score: inactive: ≤ -0.009
[2]
  scaled lipid accumulation score: inactive: 0.147

## COc1ccc(COc2ccc(Cc3cnc(N)nc3N)cc2OC)cc1 [cFMS Receptor Tyrosine Kinase Inhibitor]
[1]
  scaled lipid accumulation score: inactive: ≤ 0

## COc1ccc(COc2ccc(Cc3cnc(N)nc3N)cc2OC)cc1
[3]
  scaled lipid accumulation score: inactive: ≤ 0
[4]
  scaled lipid accumulation score: inactive: ≤ 0
[5]
  scaled lipid accumulation score: inactive: 0.105
[1]
  scaled lipid accumulation score: inactive: 0.252
[2]
  scaled lipid accumulation score: inactive: 0.641 and inactive: ≤ 0

## COCc1c(C(C)C)nc(C(C)C)c(/C=C/[C@@H](O)C[C@@H](O)CC(=O)O)c1-c1ccc(F)cc1
[2]
  scaled lipid accumulation score: inactive: 0.271

## COCc1c(C(C)C)nc(C(C)C)c(/C=C/[C@@H](O)C[C@@H](O)CC(=O)O)c1-c1ccc(F)cc1 [Cerivastatin]
Library stock concentration: 4.4 mM
  scaled lipid accumulation score: inactive: 0.228

Source: the supplement of paper PMC9135407
